Assay results as given in the supplement of paper PMC4967469.
By IC50 is meant the dose at which the fit gives 50% viability; a limit (>, <) means that the fit lies beyond the doses tested. AUC sums up the same curve from the lowest dose to the 256-fold higher top dose; the more sensitive the line, the further below 1. For some of these results: An inferred top dose is not printed in the source and was worked back from the curve model. For some of these results: Where an entry number is given, a second screen of the drug exists; the two often differ.

Legend:
Assay in all cases: Viability of human cancer cell lines after 72 h of drug (GDSC screen)
LFM-A13 = compound: C/C(O)=C(\C#N)C(=O)Nc1cc(Br)ccc1Br [LFM-A13]; details: top dose 16 µM; top dose inferred
Method: (§1)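 Human cancer cell lines in 384-well plates, medium with 10% serum, drug for 72 h over a 256-fold dose range (nine 2-fold or five 4-fold steps up to the top dose). Adherent lines were fixed and stained with the nucleic acid dye Syto60, suspension lines read with resazurin; signal relative to control wells, capped at 0 and 100%. One two-parameter sigmoid per drug and line, fitted in a mixed model over all curves with the slope shared within a line.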

Nilotinib = compound: Cc1cn(-c2cc(NC(=O)c3ccc(C)c(Nc4nccc(-c5cccnc5)n4)c3)cc(C(F)(F)F)c2)cn1 [Nilotinib]; details: top dose 2 µM
Method: as §1

T0901317 = compound: O=S(=O)(c1ccccc1)N(CC(F)(F)F)c1ccc(C(O)(C(F)(F)F)C(F)(F)F)cc1 [T0901317]; details: top dose 10.24 µM; top dose inferred
Method: as §1

Bicalutamide = compound: CC(O)(CS(=O)(=O)c1ccc(F)cc1)C(=O)Nc1ccc(C#N)c(C(F)(F)F)c1 [Bicalutamide]; details: top dose inferred
Method: as §1

KIN001-270 = compound: Cc1ccc(Nc2cc(-c3cccc(N4C(=O)c5ccccc5C4=O)c3)ncn2)cc1NS(C)(=O)=O [KIN001-270]; details: top dose 20 µM; top dose inferred
Method: as §1

AUY922 = compound: CCNC(=O)c1noc(-c2cc(C(C)C)c(O)cc2O)c1-c1ccc(CN2CCOCC2)cc1 [AUY922]; details: top dose 0.256 µM; top dose inferred
Method: as §1

TW-37 = compound: CC(C)c1ccccc1Cc1cc(C(=O)Nc2ccc(S(=O)(=O)c3ccccc3C(C)(C)C)cc2)c(O)c(O)c1O [TW-37]; details: top dose 5 µM
Method: as §1

MP470 = compound: S=C(NCc1ccc2c(c1)OCO2)N1CCN(c2ncnc3c2oc2ccccc23)CC1 [MP470]; details: top dose 20 µM; top dose inferred
Method: as §1

Gemcitabine = compound: Nc1ccn([C@@H]2O[C@H](CO)[C@@H](O)C2(F)F)c(=O)n1 [Gemcitabine]; details: top dose 1.024 µM
Method: as §1

[1] = top dose 1.024 µM, screen: GDSC drug entry 150
[2] = top dose 10 µM, screen: GDSC drug entry 1502

Row | Cell Line | AUC (LFM-A13) | IC50 (LFM-A13) | AUC (Nilotinib) | IC50 (Nilotinib) | AUC (T0901317) | IC50 (T0901317) | AUC (Bicalutamide; [1]) | IC50 (Bicalutamide; [1]) | AUC (KIN001-270) | IC50 (KIN001-270) | AUC (AUY922) | IC50 (AUY922) | AUC (TW-37) | IC50 (TW-37) | AUC (MP470) | IC50 (MP470) | AUC (Gemcitabine) | AUC (Bicalutamide; [2]) | IC50 (Bicalutamide; [2]) | IC50 (Gemcitabine)
1 | KYSE-140 (oesophagus, adherent) | 0.984 | > 16 µM | 0.97 | > 2 µM | 0.984 | > 10.2 µM | 0.984 | > 1.02 µM | 0.959 | > 20 µM | 0.459 | 0.0122 µM | 0.474 | 0.263 µM | 0.956 | > 20 µM | 0.377 |  |  | 
2 | KYSE-150 (oesophagus, adherent) | 0.95 | > 16 µM | 0.969 | > 2 µM | 0.985 | > 10.2 µM | 0.989 | > 1.02 µM | 0.986 | > 20 µM | 0.476 | 0.0138 µM | 0.591 | 0.549 µM | 0.937 | > 20 µM | 0.196 | 0.988 | > 10 µM | 0.00839 µM
3 | KYSE-220 (oesophagus, adherent) | 0.968 | > 16 µM | 0.985 | > 2 µM | 0.986 | > 10.2 µM | 0.986 | > 1.02 µM | 0.983 | > 20 µM | 0.642 | 0.0405 µM | 0.448 | 0.224 µM | 0.98 | > 20 µM | 0.301 | 0.982 | > 10 µM | 0.017 µM
4 | KYSE-410 (oesophagus, adherent) | 0.977 | > 16 µM | 0.977 | > 2 µM | 0.982 | > 10.2 µM | 0.982 | > 1.02 µM | 0.985 | > 20 µM | 0.494 | 0.0154 µM | 0.62 | 0.683 µM | 0.98 | > 20 µM | 0.449 |  |  | 0.0461 µM
5 | KYSE-510 (oesophagus, adherent) | 0.992 | > 16 µM | 0.987 | > 2 µM | 0.992 | > 10.2 µM | 0.991 | > 1.02 µM | 0.992 | > 20 µM | 0.427 | 0.0105 µM | 0.409 | 0.185 µM | 0.977 | > 20 µM | 0.017 | 0.977 | > 10 µM | < 0.004 µM
6 | KYSE-520 (oesophagus, adherent) | 0.957 | > 16 µM | 0.894 | > 2 µM | 0.976 | > 10.2 µM | 0.981 | > 1.02 µM | 0.981 | > 20 µM | 0.6 | 0.033 µM | 0.796 | 3.32 µM | 0.972 | > 20 µM | 0.52 | 0.979 | > 10 µM | 0.0738 µM
7 | LN-18 (glioma, adherent) | 0.987 | > 16 µM | 0.994 | > 2 µM | 0.992 | > 10.2 µM | 0.993 | > 1.02 µM | 0.994 | > 20 µM | 0.579 | 0.0252 µM | 0.422 | 0.2 µM | 0.987 | > 20 µM | 0.062 | 0.984 | > 10 µM | < 0.004 µM
8 | LNZTA3WT4 (glioma, adherent) | 0.976 | > 16 µM | 0.988 | > 2 µM | 0.971 | > 10.2 µM | 0.989 | > 1.02 µM | 0.97 | > 20 µM | 0.695 | 0.0556 µM | 0.464 | 0.25 µM | 0.891 | > 20 µM | 0.369 | 0.983 | > 10 µM | 0.028 µM
9 | LOU-NH91 (lung squamous cell carcinoma, adherent) | 0.966 | > 16 µM | 0.986 | > 2 µM | 0.983 | > 10.2 µM | 0.985 | > 1.02 µM | 0.986 | > 20 µM | 0.905 | > 0.256 µM | 0.496 | 0.305 µM | 0.982 | > 20 µM | 0.932 | 0.981 | > 10 µM | > 1.02 µM
10 | LS-180 (large intestine, adherent) | 0.979 | > 16 µM | 0.983 | > 2 µM | 0.979 | > 10.2 µM | 0.942 | > 1.02 µM | 0.984 | > 20 µM | 0.655 | 0.046 µM | 0.84 | 4.19 µM | 0.904 | > 20 µM | 0.131 | 0.977 | > 10 µM | < 0.004 µM
11 | LU-135 (small cell lung carcinoma, suspension) | 0.992 | > 16 µM | 0.97 | > 2 µM | 0.992 | > 10.2 µM | 0.979 | > 1.02 µM | 0.972 | > 20 µM | 0.447 | 0.0118 µM | 0.56 | 0.443 µM | 0.925 | > 20 µM | 0.179 | 0.99 | > 10 µM | 0.0088 µM
12 | M14 (melanoma, adherent) | 0.982 | > 16 µM | 0.986 | > 2 µM | 0.973 | > 10.2 µM | 0.983 | > 1.02 µM | 0.983 | > 20 µM | 0.837 | 0.185 µM | 0.802 | 2.62 µM | 0.977 | > 20 µM | 0.649 | 0.978 | > 10 µM | 0.17 µM
